Data as given in PMC5700166.
Only a part is listed here, and it is no random draw. The list includes weakly bound sequences.

Molecular target: T1, GST-Ap-NF-kB RHD (UniProt A0A913YAJ5)
T1 sequence: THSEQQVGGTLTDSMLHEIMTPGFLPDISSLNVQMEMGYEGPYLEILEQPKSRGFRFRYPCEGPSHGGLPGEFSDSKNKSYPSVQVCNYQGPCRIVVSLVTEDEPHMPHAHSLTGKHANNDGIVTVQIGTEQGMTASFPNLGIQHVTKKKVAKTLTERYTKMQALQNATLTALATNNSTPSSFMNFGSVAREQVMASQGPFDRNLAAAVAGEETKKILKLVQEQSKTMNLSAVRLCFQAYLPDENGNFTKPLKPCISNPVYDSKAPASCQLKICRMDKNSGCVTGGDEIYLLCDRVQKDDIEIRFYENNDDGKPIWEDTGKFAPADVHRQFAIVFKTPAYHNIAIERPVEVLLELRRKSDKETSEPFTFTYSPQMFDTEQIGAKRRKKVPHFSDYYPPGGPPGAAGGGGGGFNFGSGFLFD
Assay: protein-binding microarray (PBM)
Conditions: PBM: ~300 nM protein, 6 mM HEPES pH 7.8, 80 mM KCl, 0.5 mM EDTA, 0.5 mM EGTA, 6% glycerol, 35 ng/ul poly-dIdC, 1% milk, 1 h, room temperature; Ap Aiptasia and Nv Nematostella (sea anemones) / Co Capsaspora / Aq Amphimedon (sponge) / Dm Drosophila / Hu human; RHD is the Rel homology domain; high values mean tight binding; most listed sequences are background and not binding sites; double strand, one strand shown

| Sequence | binding signal |
| --- | --- |
| CCGATTAACATCAGCATTCCCCCTGATGTTAATCGGGTCTTGATTCGCTTGACGCTGCTG | 7.2 z-score |
| CCGATTAACATCAATTTGGGAAATGATGTTAATCGGGTCTTGATTCGCTTGACGCTGCTG | 0.389 z-score |
| CCGATTAACATCAGAGATTTCCCTGATGTTAATCGGGTCTTGATTCGCTTGACGCTGCTG | 3.94 z-score |
| CCGATTAACATCACCTTCTTTACTGATGTTAATCGGGTCTTGATTCGCTTGACGCTGCTG | 0.402 z-score |
| CCGATTAACATCATTGGGAAAAATGATGTTAATCGGGTCTTGATTCGCTTGACGCTGCTG | 0.96 z-score |
| CCGATTAACATCATATTGGGAAATGATGTTAATCGGGTCTTGATTCGCTTGACGCTGCTG | 0.328 z-score |
| CCGATTAACATCAGGCGATCCCCTGATGTTAATCGGGTCTTGATTCGCTTGACGCTGCTG | 5.05 z-score |
| CCGATTAACATCATAAATTCCCATGATGTTAATCGGGTCTTGATTCGCTTGACGCTGCTG | 2.62 z-score |
| CCGATTAACATCAGGGGGTTGACTGATGTTAATCGGGTCTTGATTCGCTTGACGCTGCTG | 4.64 z-score |
| CCGATTAACATCAGGGAGTCCCCTGATGTTAATCGGGTCTTGATTCGCTTGACGCTGCTG | 10.9 z-score |
| CCGATTAACATCAGGGAAAACACTGATGTTAATCGGGTCTTGATTCGCTTGACGCTGCTG | 3.49 z-score |
| CCGATTAACATCAGAAAACCCCCTGATGTTAATCGGGTCTTGATTCGCTTGACGCTGCTG | 10.8 z-score |
| CCGATTAACATCAGGGAAACTCATGATGTTAATCGGGTCTTGATTCGCTTGACGCTGCTG | 3.29 z-score |
| CCGATTAACATCAGACTGGGAAATGATGTTAATCGGGTCTTGATTCGCTTGACGCTGCTG | 1.4 z-score |
| CCGATTAACATCAAAGCACCCCCTGATGTTAATCGGGTCTTGATTCGCTTGACGCTGCTG | 4.9 z-score |
| CCGATTAACATCAATGCACCCCCTGATGTTAATCGGGTCTTGATTCGCTTGACGCTGCTG | 4.19 z-score |
| CCGATTAACATCAAAATTCCCACTGATGTTAATCGGGTCTTGATTCGCTTGACGCTGCTG | 3.89 z-score |
| CCGATTAACATCACAAAATTCCCTGATGTTAATCGGGTCTTGATTCGCTTGACGCTGCTG | 5.93 z-score |
| CCGATTAACATCAAAAATCCCACTGATGTTAATCGGGTCTTGATTCGCTTGACGCTGCTG | 3.51 z-score |
| CCGATTAACATCACCCAATTCCCTGATGTTAATCGGGTCTTGATTCGCTTGACGCTGCTG | 3.33 z-score |
| CCGATTAACATCACAAAACTCCCTGATGTTAATCGGGTCTTGATTCGCTTGACGCTGCTG | 4.94 z-score |
| CCGATTAACATCAGGGAACTTTATGATGTTAATCGGGTCTTGATTCGCTTGACGCTGCTG | 4.27 z-score |
